Results: PubChem BioAssay AID588342 (National Center for Advancing Translational Sciences (NCATS), 2011)
About 25,000 (6.9%) of roughly 360,000 compounds were called active. Inconclusive means that the source gave no clear call. Such entries were picked first, then a sample of the others. The call rests on the fitted dose curve; in most records, active means well fitted inhibition curve with a large enough effect; inconclusive means small, poorly fitted or top-dose-only effect; inactive means flat fitted curve, though single readings scatter. Potencies of inconclusive entries are doubtful fits and often do not repeat.

The compounds below were run against Luciferin 4-monooxygenase (Photinus pyralis) (UniProt P08659) (assay: qHTS profiling assay for firefly luciferase inhibitor/activator using purifed enzyme and Km concentrations of substrates (counterscreen for miR-21 project)). Settings: purified FLuc, luminescence inhibition; series mostly up to 57.5 µM.
Sequence of UniProt P08659 (P08659 whole entry, looked up): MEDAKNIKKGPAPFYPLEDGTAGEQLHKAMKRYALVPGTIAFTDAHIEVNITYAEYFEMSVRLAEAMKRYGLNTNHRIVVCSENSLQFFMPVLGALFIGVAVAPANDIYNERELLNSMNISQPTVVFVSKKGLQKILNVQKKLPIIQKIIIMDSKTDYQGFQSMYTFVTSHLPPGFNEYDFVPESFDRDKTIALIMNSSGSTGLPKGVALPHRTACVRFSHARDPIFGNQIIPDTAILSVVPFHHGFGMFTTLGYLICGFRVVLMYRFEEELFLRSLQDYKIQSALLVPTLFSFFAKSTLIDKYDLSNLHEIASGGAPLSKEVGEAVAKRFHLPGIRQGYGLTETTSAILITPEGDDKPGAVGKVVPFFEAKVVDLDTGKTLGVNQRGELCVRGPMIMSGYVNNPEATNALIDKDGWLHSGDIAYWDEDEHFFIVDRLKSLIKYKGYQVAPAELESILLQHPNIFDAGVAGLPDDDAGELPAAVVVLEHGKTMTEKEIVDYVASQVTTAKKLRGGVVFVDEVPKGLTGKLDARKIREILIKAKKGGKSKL
How it was run: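 Biochemical qHTS of compounds, final roughly 60 µM downward over six points, against 10 nM purified firefly luciferase using Km concentrations of substrates (10 uM D-luciferin, 10 uM ATP) in Tris acetate pH 7.5 buffer; luminescence output.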
Further: nearly all actives have a fitted effect of over 55% in size.
Potency means the concentration at half of the fitted maximal effect; tags describe the fitted curve by direction and shape.

| SMILES | Potency |
| --- | --- |
| COC(=O)Cn1cnc2c(oc3ccccc32)c1=O | inconclusive: 26.9 µM [inhibitor, single point] |
| COc1ccc2cc3cc(C(=O)N4CCN(c5ccccc5)CC4)oc3nc2c1 | inconclusive: 23.9 µM [inhibitor, single point] |
| COc1c2c(cc3oc(C)cc(=O)c13)OC(C(C)(C)OC1OC(CO)C(O)C(O)C1O)C2 (stereo not drawn) | inactive |
| Oc1cccc2ccc(/C=C/c3cccs3)nc12 | active: 2.13 µM |
| Cn1cc(/C=C2\SC(=O)NC2=S)c2ccccc21 | inconclusive: 23.9 µM [inhibitor, partial curve, poor fit] |
| O=C(Nc1nnc(-c2ccco2)o1)c1cccc(Cl)c1 | inconclusive: 37.9 µM [inhibitor, partial curve, poor fit] |
| CC12CCC(=O)N1C(C(=O)NNC(=O)c1ccccc1F)CS2 (stereo not drawn) | inconclusive: 8.49 µM [inhibitor, single point] |
| CC(C)Oc1ccc(C(=O)N2CCN(CCc3ccccn3)CC2)cc1 | inactive |
| COc1cc(/C=N/Nc2nc(=O)[nH]nc2C)ccc1O | inconclusive: 21.3 µM [inhibitor, partial curve, poor fit] |
| COc1ccccc1C(=O)Nc1cc2ccccc2oc1=O | inconclusive: 0.675 µM [inhibitor, full curve] |
| COc1ccc(NC(=O)c2ccccc2)c([N+](=O)[O-])c1 | inconclusive: 23.9 µM [inhibitor, partial curve] |
| Cc1cnc(C(=O)N2CCCC(N3CCN(c4cccc(C(F)(F)F)c4)CC3)C2)cn1 (stereo not drawn) | inactive |
| Cc1cnn(-c2cc(N/N=C/c3cccc(F)c3)ncn2)c1 | inactive |
| CCn1c(-c2ccc(F)cc2)cnc1SCC(=O)N1CCc2ccccc21 | inconclusive: 21.3 µM [inhibitor, partial curve] |
| COc1ccc(Nc2ncnc3sc(C)cc23)cc1 | active: 16.9 µM |
| Cc1ccc(CNC(=O)CSc2ncccn2)cc1 | inconclusive: 12 µM [inhibitor, partial curve] |
| CSc1ccccc1OCc1cc(C(=O)N(C)Cc2ccncn2)no1 | active: 15.1 µM |
| O=C(CN1CCOCC1)Nc1cccc(C(=O)Nc2cccc(C(F)(F)F)c2)c1 | inconclusive: 21.3 µM [inhibitor, partial curve, poor fit] |
| CCOC(=O)c1ccc(N2C=C(C(=O)OC)C(c3cccc(O)c3)C(C(=O)OC)=C2)cc1 | inconclusive: 37.9 µM [inhibitor, partial curve, poor fit] |
| Oc1c(C(c2ccc(Cl)cc2Cl)N2CCN(c3ccccc3)CC2)sc2nc(-c3ccco3)nn12 (stereo not drawn) | inconclusive: 16.9 µM [inhibitor, partial curve] |
| O=C(CN1CC(=O)Nc2ccccc21)Nc1ccc(F)c(F)c1 | inconclusive: 26.9 µM [inhibitor, partial curve] |
| CCOc1ccc(C(=O)Nc2cccc(SC)c2)cc1 | active: 6.01 µM |
| Cc1cc(O)c(C(=O)/C=C/c2c(F)c(F)c(F)c(F)c2F)c(=O)o1 | inconclusive: 37.9 µM [inhibitor, single point] |
| O=C(OCC(=O)N1CCCc2ccccc21)c1ccccc1[N+](=O)[O-] | active: 15.1 µM |
| Cc1cc(Cl)c2oc(C(=O)N(C)Cc3ccon3)c(C)c2c1 | active: 13.5 µM |

| SMILES | Potency |
| --- | --- |
| COc1ccc(NC(=O)c2ccccc2NC(=O)CSc2ccc(C)cc2)cc1 | inactive |
| Fc1ccc(Cn2cccc2C2=NC(c3ccccc3)CO2)cc1 (stereo not drawn) | inconclusive: 37.9 µM [inhibitor, single point] |
| CC(=O)Oc1ccc(-c2csc(Nc3cccnc3)n2)cc1 | inconclusive: 5.36 µM [inhibitor, partial curve, poor fit] |
| Cc1ccc(Nc2nc(N)c3ccccc3n2)cc1Cl | active: 0.953 µM |
| CCOc1ccc(N=Nc2cc(C(C)C)ccc2O)cc1 | inconclusive: 12 µM [inhibitor, partial curve, poor fit] |
| CC(C)Oc1ccccc1-c1cc(C(=O)N/N=C/c2cccnc2)c2ccccc2n1 | inconclusive: 21.3 µM [inhibitor, single point] |
| O=C1COc2ccc(N3C(=O)C=CC3=O)cc2N1 | inconclusive: 10.7 µM [inhibitor, partial curve] |
| CC(=O)c1cn(CC(=O)Nc2ccc(C)cc2C)c2ccccc12 | inactive |
| CCN1c2ccccc2-c2nc(SCC(=O)NCc3ccc(C)cc3)ncc2S1(=O)=O | inactive |
| COc1cccc(OC)c1C(=O)Nc1cccc(-c2ccc(N3CCOCC3)nn2)c1 | active: 1.51 µM |
| Cn1c(=O)c(C(=O)NCc2ccccc2Cl)c(O)c2ccccc21 | inconclusive: 21.3 µM [inhibitor, partial curve] |
| COc1ccc(CNC(=O)c2cnc3sc(N4CCCCCC4)nn3c2=O)cc1 | inactive |
| O=C1CCC(=O)N1OCCOc1ccc2c(c1)CCC2 | inconclusive: 23.9 µM [inhibitor, partial curve] |
| CCOC(=O)c1c(C)[nH]c(C(=O)COC(=O)c2cnccn2)c1C | inconclusive: 21.3 µM [inhibitor, partial curve, poor fit] |
| CC(OC(=O)/C=C/c1ccc2ccccc2n1)C(=O)N(C)c1ccccc1 (stereo not drawn) | inconclusive: 16.9 µM [inhibitor, partial curve] |
| CC1CCN(C(=O)COC(=O)c2ccc3c(c2)C(=O)N(Cc2ccco2)C3=O)CC1 | inconclusive: 23.9 µM [inhibitor, partial curve, poor fit] |
| O=C(NOC(=O)c1ccccc1F)c1ccc(OC(F)F)cc1 | inconclusive: 23.9 µM [inhibitor, single point] |
| Cc1ccc2c(c1)cc1c(=O)n(CC(=O)N3CCCC3)nc(C)n12 | inactive |
| Cc1onc(-c2ccccc2Cl)c1C(=O)Oc1cccc2cccnc12 | inactive |
| CCc1cc(=O)oc2c3c(cc(OCC(=O)NCc4ccccn4)c12)OC(C)(C)CC3 | inconclusive: 26.9 µM [inhibitor, partial curve, poor fit] |
| O=c1[nH]c(-c2ccccn2)nc2ccccc12 | active: 23.9 µM |
| CC(=O)Nc1ccc(SCC(=O)c2cc(C)n(Cc3cccs3)c2C)cc1 | active: 16.9 µM |
| CC(Oc1ccc2c(-c3ccccc3)cc(=O)oc2c1)C(=O)NC(Cc1c[nH]c2ccc(O)cc12)C(=O)O (stereo not drawn) | inconclusive: 26.9 µM [inhibitor, single point] |
| O=C(c1cc(-c2ccc(O)cc2)on1)N1CCCC1 | active: 6.01 µM |
| O=S(=O)(c1ccc2nc(-c3ccco3)c(-c3ccco3)nc2c1)N1CCOCC1 | inconclusive: 26.9 µM [inhibitor, partial curve] |

| SMILES | Potency |
| --- | --- |
| CCc1ccc2c(c1)NC(c1ccc(C)cc1)=NC(c1cccs1)=N2 | inconclusive: 15.1 µM [inhibitor, partial curve] |
| Cc1ccccc1NC(=O)c1ccc(CSc2ncccn2)cc1 | inconclusive: 26.9 µM [inhibitor, single point] |
| CN(C)/N=C1\CCS(=O)(=O)c2sccc21 | inactive |
| CC(=O)Nc1ccc(NC(=O)c2ccc3c(c2)NC(=O)c2ccccc2S3)cc1 | inactive |
| CCC(C)NC(=O)c1c(N)n(/N=C/c2cccs2)c2nc3ccccc3nc12 (stereo not drawn) | active: 3.01 µM |
| Nc1ccc(-c2nc3c(Cl)c(N)ccc3[nH]2)cc1 | active: 12 µM |
| Cc1ccc(NC(=O)C(C)Sc2nc(-c3ccccc3)c(C#N)c(=O)[nH]2)c(C)c1 (stereo not drawn) | active: 12 µM |
| COc1ccc(C(=O)Nc2ccc(NC(=O)c3ccccn3)cn2)cc1 | inconclusive: 10.7 µM [inhibitor, partial curve, poor fit] |
| CC(=O)c1cccc(NC(=S)NC(=O)c2ccc(C)cc2Cl)c1 | active: 15.1 µM |
| Clc1ccccc1Cc1noc(CN2CCSCC2)n1 | inactive |
| CSc1ccc(/C=N/NC(=O)c2ccc(-n3cnnn3)cc2)cc1 | inconclusive: 15.1 µM [inhibitor, partial curve] |
| O=c1c(N2CCc3ccccc3C2)csc2ccc(Cl)cc12 | inconclusive: 2.39 µM [inhibitor, full curve] |
| COc1ccc(Nc2c(-c3ccc(N4CCOCC4)cc3)nc3ncccn23)cc1OC | inconclusive: 23.9 µM [inhibitor, partial curve] |
| CCOC(=O)c1ccc(NC(=O)c2ccccc2[N+](=O)[O-])cc1 | inconclusive: 37.9 µM [inhibitor, single point] |
| COCC(=O)Nc1cc(C(=O)Nc2ccccc2)ccc1Cl | inconclusive: 16.9 µM [inhibitor, partial curve] |
| CCc1ccc(C(=O)COC(=O)CNC(=O)c2ccco2)cc1 | inconclusive: 23.9 µM [inhibitor, single point] |
| COc1cccc(/C=N/n2c(C)nc3ccccc32)c1OC | inconclusive: 37.9 µM [inhibitor, single point] |
| O=C(COc1ccc2ccccc2c1)Nc1ccncc1 | active: 9.53 µM |
| COc1cc(/C=c2\sc3n(c2=O)CCCN=3)ccc1O | inconclusive: 15.1 µM [inhibitor, partial curve] |
| Cc1ccc(Nc2n[nH]c(C)c2[N+](=O)[O-])cc1C | active: 3.01 µM |
| CC1Oc2ccccc2C=C1/C=C1/SC(N2CCOCC2)=NC1=O (stereo not drawn) | active: 21.3 µM |
| CCOC(=O)c1sc(-c2ccccc2)cc1NC(=O)Nc1ccccc1 | inconclusive: 19 µM [inhibitor, partial curve, poor fit] |
| O=S(=O)(/N=C(/Sc1ccccc1)c1ccccc1)c1ccccc1 | inconclusive: 21.3 µM [inhibitor, partial curve, poor fit] |
